# Measurements published in the RNAGym collection of RNA variant scans (doi:10.7554/elife.90254).
# Read counts are not given, so values of variants with three or more changes are uncertain.
# B1: LINE1-mini (parent)
# chain: GGCAGAGCUCAACACAGCGUGGCAAAGUGGCUGUGGCUAGACUGCC
# Variants of: B1
# Assay: self-cleavage, relative activity (ratio to wild type); higher = more cleavage; in vitro, sequencing; the parent is a self-cleaving ribozyme
row,Variant,self-cleavage
1,GGCAGAUCUCAACAGAGCGUGGCACAGUUGCUGUGGCUGGACUGCC [G7U C15G A25C G29U A39G],0.05
2,GGCAGAUCUGAACACAUCGUGUCAAAGUGGCUGUGGCUAGACUGCC [G7U C10G G17U G22U],0.03
3,GGCAGAUCUCAACUCAUCGUGGCCAAUUGGCUGUGGCUAGAAUGCU [G7U A14U G17U A24C G27U C42A C46U],0.11
4,GGCAGAUCUCAAAACAGCGUGGCAAAGUGGCUGUGGCUAGAUUGCC [G7U C13A C42U],0.29
5,GGCAGAUCUCAACACAGGGUGGCAAAGUGGCUGUGGCCAGACUGCU [G7U C18G U38C C46U],0.08
6,GGCAGAUCUGAACACAGCGUGGCAAAGUGGCUGUGGCUAGACAGCC [G7U C10G U43A],0.03
7,GGCAGAUCUCAAGACAGCGUGGCAAAGUGGCGGUGGCUAGACUGCC [G7U C13G U32G],0.02
8,GGCAGAUCUCAACACAGAGUGGCAACGUGGCUGUGGCUAGCCUGUC [G7U C18A A26C A41C C45U],0.17
9,GGCAGAUCUGAACACAGCGUGGCAAACUGGCUGUGCCUAGACUGCC [G7U C10G G27C G36C],0
10,GGCAGAUCUUAACACAGCGUACCAAAGUGGCUGUCCCUAGACUGCC [G7U C10U G21A G22C G35C G36C],0.06
11,GGCAGAUCUCAACACAGCGUGGUAAAGUGGCUGUGGCUAGACUCCC [G7U C23U G44C],0.06
12,GGCAGAUCUCAACACAGCGUGGCCAAGUGGCCGUGGCGAGACUGCC [G7U A24C U32C U38G],0.02
13,GGCAGAUCUGAACACAGCGUGGCAAAGUUGCUGUGGCUAGACUGCC [G7U C10G G29U],0.04
14,GGCAGAUCUCAACCCAGCGUCGCAAAGUGGCUGUGGCUAGACUGCC [G7U A14C G21C],0.03
15,GGCAGAUCUCAACACAGCGUGGCAAAGUGGCUGUGGCUAGGACUGC [G7U A41G C42A U43C G44U C45G],0.04
16,GGCAGAUCUCAACACAGCGUGGCAAAGUGGCUGUGGCUCGACUGUC [G7U A39C C45U],0.11
17,GGCAGAUCUCAACAAAGCGUGGCAAAGUGGCUGAGGCUAGACUGCC [G7U C15A U34A],0.1
18,GGCAGAUUUCAACACAGCAUGGCAAAGUGGCUGUGGCUAGACAGCC [G7U C8U G19A U43A],0.07
19,GGCAGAUCUCAACACAGCGUGGCAACGUGGCUAUGGCUAGACUGCC [G7U A26C G33A],0.15

row,Variant,self-cleavage
1,GGCAGAUCUAUACACAGCGUAGCAAAGUGGCUGUGGCUAGACUGCC [G7U C10A A11U G21A],0.02
2,GGCAGAUGUCAACACAGCGUGGCAAAGGGGCUGUGGCUUGGCUGCC [G7U C8G U28G A39U A41G],0.1
3,GGCAGAUGUCAACACAGCGUGGAAAAGUGGAUGUGGAUAGACUGCC [G7U C8G C23A C31A C37A],0.04
4,GGCAGAUUUCAACACAGAGUGACAAAGGGGCUGUGGCUAGACUGCC [G7U C8U C18A G22A U28G],0.2
5,GGCAGAUCUUAACACAGCGUCGCAAAGUGGCUGUGGCUAGACUGCC [G7U C10U G21C],0.04
6,GGCAGAUUUCAACUCAGCGUGGCAAAGUGGCUGUGGAUAGACUGCC [G7U C8U A14U C37A],0.1
7,GGCAGAUCUCAACAUUGCGUGGCAAAGUGGGUGUGGCUAGACUGCC [G7U C15U A16U C31G],0.09
8,GGCAGAUCUCAAGACAGCGUGGCAAAAUGGCUGUGGCUAGACUGCC [G7U C13G G27A],0.01
9,GGCAGAUCUCAACACCGCGUGGCAAAGUGGCUGUGGCUAGACUGAC [G7U A16C C45A],0.1
10,GGCAGAUCUCAGCACAGCGUGGCAAAGUGGCUGUGUCUAGACUGCC [G7U A12G G36U],0.02
11,GGCAGAUCUGAACACAGCGUGGCAAUAUUGCUGUGGCAAGACUGCC [G7U C10G A26U G27A G29U U38A],0.01
12,GGCAGAUCUAAACACAGCGUGGCAAAGUGGCUGUGGCUAAACUGCC [G7U C10A G40A],0.01
13,GGCAGAUCUCAACAGAGCGUGGCAAAGUGGCUGCGGCUAGACUGCC [G7U C15G U34C],0.13
14,GGCAGAUCUCAAAACAGCGUGACAAAAUGGAUGUGGCUGGACUGCC [G7U C13A G22A G27A C31A A39G],0.08
15,GGCAGAUCUCAACUCAGCGGGGCAAAGUGGCUGUGGCUAGACUGCC [G7U A14U U20G],0.09
16,GGCAGAUCUCAACACAGAGGGGCAAAGUGGCUGUGGCUAGACUGCC [G7U C18A U20G],0.11
17,GGCAGAUCUCAACACAGCGUGGCAAGUGGCUGUGGGCUAGACUGCC [G7U A26G G27U U28G G30C C31U U32G G33U U34G],0.02
18,GGCAGAUCUUAACACAGCGUGGCAAAGUGUCUGUGUCUAGACUGCC [G7U C10U G30U G36U],0.01
19,GGCAGAUCUCAACACGGCGUGGCAAAGUGGCUGUGGCUCGACUGCC [G7U A16G A39C],0.06

row,Variant,self-cleavage
1,GGCAGAUCUCAACACAGCGUGGCAAGGUGGCUGUGGCUAGCCCGCC [G7U A26G A41C U43C],0.32
2,GGCAGAUCUCAACACAGUACGGCAAAUUGGCUGUGGCUAGACUACC [G7U C18U G19A U20C G27U G44A],0.07
3,GGCAGAUCUCAACACAGCGUGGCAACGUGGCUGUGGCUAGCCUGCC [G7U A26C A41C],0.09
4,GGCAGAUCUCAACACCGCGGGGCAAAGUGGCUCUGGCUAGACUGCC [G7U A16C U20G G33C],0.02
5,GGCAGAUCUCAAAACAGCGUGGCAAUGAGGCUGGGGCUAGACUGCC [G7U C13A A26U U28A U34G],0.14
6,GGCAGAUCUCAACUCAGCGUUGCAAAGUGGCUGUGGCAAGACUGCC [G7U A14U G21U U38A],0.02
7,GGCAGAUCUCAACACGGCGUGGUAAAGUGGCUGUGGCUAGACUGCC [G7U A16G C23U],0.01
8,GGCAGAUCUCAACUCAGCGUGGCUAAGUGGCUGUGGCUAAACUGCC [G7U A14U A24U G40A],0.44
9,GGCAGAUCUCAACGCAGCGUGGCAAGGUGGCUGUGGCUACACUGCC [G7U A14G A26G G40C],0.01
10,GGCAGAUAACAACACAGCGUGGCAACGCGGCUAUGGCUAGACUGCC [G7U C8A U9A A26C U28C G33A],0.47
11,GGCAGAUCUCAACAGAGAGUGGCAAAGUGGCUGUGGUUAGACUGCU [G7U C15G C18A C37U C46U],0.05
12,GGCAGAUCUCAACACUGCGUGGCAAAGUGGCUGUGGCUAGACUCCC [G7U A16U G44C],0.16
13,GGCAGAUCUAAACACAGCGAGGCAAAGUGGCUGUGGCUAGACUGCC [G7U C10A U20A],0.01
14,GGCAGAUCUCAACGGACCAUGGCAAAGUGGCUGUGGCUAGACUCCC [G7U A14G C15G G17C G19A G44C],0.09
15,GGCAGAUUUCACCACAGCGGGGCAAAGUGGCUUUGGCUAGAGUGCC [G7U C8U A12C U20G G33U C42G],0.09
16,GGCAGAUCUCAAAACAGCGUGGCAAAGUGGCUCUGGUUAGACUGCC [G7U C13A G33C C37U],0.05
17,GGCAGAUCUCAGCACAGCGUGGCAAAGUGGCUGUGUCUAGUCUGCC [G7U A12G G36U A41U],0.02
18,GGCAGAUCUGAACACAGCGUGGCACAGUGGCUGUGGCAAGACUGCC [G7U C10G A25C U38A],0.01
